Results published in the supplement of paper PMC3334620.
In all, about 33,000 sequences were measured (“E-score (-0.5 to 0.5)”: median about -0.012, highest 2% from about 0.29 on). The list shows a part of the results.

molecular target: T1, Ybr033w (UniProt P38073); assay: PBM E-score (8-mer binding enrichment) (E-score (-0.5 to 0.5)); higher = stronger / more preferred TF binding; most listed sequences are background and not binding sites; conditions: protein concentration: 200 nM; construct: GST-full length
T1 sequence: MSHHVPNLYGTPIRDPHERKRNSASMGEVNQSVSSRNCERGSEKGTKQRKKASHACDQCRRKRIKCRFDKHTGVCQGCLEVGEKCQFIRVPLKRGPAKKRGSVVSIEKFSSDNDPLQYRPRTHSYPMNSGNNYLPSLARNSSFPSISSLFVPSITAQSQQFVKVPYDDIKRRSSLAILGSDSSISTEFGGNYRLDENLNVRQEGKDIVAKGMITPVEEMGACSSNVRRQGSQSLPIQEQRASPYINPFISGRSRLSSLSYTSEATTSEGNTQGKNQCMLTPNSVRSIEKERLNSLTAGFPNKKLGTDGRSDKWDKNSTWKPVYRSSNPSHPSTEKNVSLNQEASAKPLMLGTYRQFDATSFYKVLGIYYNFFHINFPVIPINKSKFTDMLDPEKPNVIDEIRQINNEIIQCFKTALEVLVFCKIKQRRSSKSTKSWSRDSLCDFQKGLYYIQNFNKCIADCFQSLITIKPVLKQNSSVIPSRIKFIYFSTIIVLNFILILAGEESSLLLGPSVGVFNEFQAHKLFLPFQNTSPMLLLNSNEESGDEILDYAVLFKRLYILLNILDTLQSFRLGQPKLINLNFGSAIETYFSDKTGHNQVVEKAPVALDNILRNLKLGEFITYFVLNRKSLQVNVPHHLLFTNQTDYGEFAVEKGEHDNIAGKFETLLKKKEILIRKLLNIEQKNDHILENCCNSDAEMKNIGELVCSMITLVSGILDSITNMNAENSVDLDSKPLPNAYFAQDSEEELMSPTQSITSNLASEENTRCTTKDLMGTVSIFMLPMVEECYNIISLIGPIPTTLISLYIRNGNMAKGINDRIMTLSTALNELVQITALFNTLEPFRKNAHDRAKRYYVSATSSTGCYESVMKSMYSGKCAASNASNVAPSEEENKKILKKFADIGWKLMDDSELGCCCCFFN
In short: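 Each ungapped eight-base word and its reverse complement, pooled, received an E-score from the Universal PBM Analysis Suite. Underlying scans, normalised with masliner, recorded fluorescent anti-GST bound to GST-tagged yeast transcription factors. These were applied at about 100-200 nM to universal all-10-mer Agilent arrays double-stranded by primer extension.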

Sequence | PBM E-score
TACTATCA | 0.206
GGGGCAGA | -0.101
GTTTCGCA | -0.0794
CATATACC | -0.165
ACCCGCGT | -0.0336
ACTGAGTG | 0.159
GAAGTGTC | -0.0303
AGGTTTCA | 0.05
ACTAAGCA | 0.122
CCTGCTGC | -0.0853
AGATAGCA | 0.0858
ACGTGTTA | 0.13
AGCGTTAA | 0.0525
AGAAGGAA | 0.0518
ATTGTTCA | 0.207
GACTTTAC | 0.03
CTAGGCGA | 0.00833
ACGGGAAC | -0.0305
CGATAGTA | 0.0142
CTACATGA | -0.00626
CTGTTTGC | 0.0774
TAGCGCGA | 0.0794
AGGCCACG | -0.207
CGATTGAA | 0.0157
ACAAACAG | 0.0852

Sequence | PBM E-score
TCTGGGCA | -0.0147
AGCCGACT | -0.204
CCCGGCCA | -0.284
CGCGCCGA | -0.154
TGAAGACA | -0.169
GATAAGAA | 0.0799
CGAGCATC | -0.121
AGCCGTAC | -0.0294
AGAACGAA | 0.161
ACGTCCAC | -0.105
AGCCACCC | -0.296
ACCGAAAT | 0.04
AAAGGTAT | 0.125
AGCAGTCG | -0.0427
AGCATAAA | 0.141
GAACCAAA | 0.171
GCTGCGCC | -0.166
CAACTAAG | 0.121
CAAGTCTC | -0.0267
CAGCTGCA | -0.167
AGCCCTTC | -0.128
TTACGTAA | -0.0918
AGTAGGAC | -0.0355
ACTGATAG | -0.0225
ACGTTAAG | 0.0414

Sequence | PBM E-score
TGCCACCA | -0.203
CGGATACC | -0.0794
ACCTAAGC | 0.0193
CGTTCTCC | -0.0553
AGATCAGA | -0.114
GGTGCTCA | -0.00859
CGGACCGC | -0.22
AATCTAGA | 0.128
AGAAGCAC | -0.0459
ATCTAACG | 0.105
AGCTAGTC | 0.0503
CATCTCGC | -0.134
AACTGTCA | 0.0683
ACCTGCAG | -0.308
AGTTGCGA | 0.206
CCCTCGAG | -0.159
AAGACGTC | -0.16
CCTATGAG | 0.00504
AAAAACGC | 0.182
AGAGCGAC | -0.081
AGATGACG | -0.0606
GAGTTGCC | 0.0173
ACCCTTGA | -0.096
ACAGTGTA | 0.00123
ACAATGCG | 0.106

Sequence | PBM E-score
TAAAGTGA | 0.259
ACTCCAAG | 0.0778
ACGGTAAA | 0.149
CATATTTA | 0.28
GCCCTAGC | -0.162
GCGGTCAA | -0.197
CCGCGGTC | -0.176
AAGATAAT | 0.307
GTCTAGCA | 0.13
TTTGCAAA | -0.0644
TCACGTCA | -0.0404
GAAGTGCA | -0.0645
AGTGGGGC | -0.271
TACAAGTA | 0.19
GCACCGGC | -0.193
AGGGCGTA | -0.0274
ATCCTACG | 0.00923
CGTGCCGA | -0.135
ATAATCCA | 0.327
ATAGGGAG | -0.219
CCCACTTC | -0.0842
ATATCCAG | 0.0896
GGGTACGA | -0.146
ATCTACAT | 0.152
TAAACATA | 0.196

Sequence | PBM E-score
AAACATAA | 0.248
CCGGTCGA | -0.23
ATTTGTTG | 0.198
AGGCAAAG | -0.123
AATGGAGA | 0.0527
ACTAGTCT | -0.0233
CGGTAGGA | -0.0716
GCCGCCGA | -0.0374
ATTCACGA | 0.141
AGGGATAA | 0.204
GACCCTGC | -0.192
CGGTTAGC | -0.147
GGGACAAC | -0.157
CGTTAATA | 0.166
ATTAAGTA | 0.365
GGGAAAAC | 0.0792
GCCGGCCC | -0.266
GACTGTCC | -0.322
CAAGCTTA | 0.0492
TATGACAA | 0.167
CAATCAGG | 0.0432
ATTGCAAA | 0.258
CGTAAGTC | 0.0179
ACCATTCG | -0.0883
CTTTAAAA | 0.2

Sequence | PBM E-score
AATCTGAG | 0.0159
ACGGTCTG | -0.0461
CAATACGA | 0.141
GAGTATAC | 0.0107
GTGCCCAA | -0.112
GCCTTGCC | -0.157
CAGCTACA | 0.0259
GACTAAGC | -0.0518
TCTGTTAA | 0.0426
AGCACGCA | -0.0508
ACATGAGA | 0.183
ATTAGAAC | 0.168
AAACCCCT | -0.371
ACGGGTTG | -0.177
GGTAAGCA | -0.0606
ATGGGCGC | -0.203
CCGAAGTC | -0.0348
CTACGCCA | -0.0185
GCACACCC | -0.263
ACTACGCT | -0.0504
TCAGGGCA | -0.0793
TGCATCCA | -0.0886
CTGTTATA | 0.0916
AAGCTATT | 0.00398
ACGACGAG | -0.147

Sequence | PBM E-score
GATTGTAA | 0.156
CAACTTAG | 0.146
AAACGGAG | -0.0435
GATGTTCA | -0.079
ACAAGTTG | -0.0208
GACGGTCC | -0.273
CAACGGGC | -0.145
CCGGAGCG | -0.124
AAATTTAG | 0.278
GCCAACGA | 0.00414
AACAAACA | 0.193
CCTGCGTC | -0.206
GCGCGACA | -0.0301
GCACCAAC | -0.251
CAGAGCTC | -0.265
ACGGTTCA | -0.308
GAGTTACC | -0.0841
GAACCGTC | -0.145
AGAGATCT | -0.0343
AGGCACAA | -0.0351
ACGGGCTC | -0.32
TACGACTA | 0.0548
